The whole screen tested about 310,000 compounds, of which about 14,000 (4.5%) showed an effect of 50% or more. Effects have a minus sign here. Some of the results follow.
These molecules were tested against human ether-à-go-go-related gene (hERG) potassium channel (human, UniProt Q12809) (assay: primary screen, population patch clamp on CHO cells stably expressing hERG).
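Further: peak tail current of the secondary pulse compared with the same well before compound.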

Sequence of human ether-à-go-go-related gene (hERG) potassium channel (Q12809 whole entry, looked up): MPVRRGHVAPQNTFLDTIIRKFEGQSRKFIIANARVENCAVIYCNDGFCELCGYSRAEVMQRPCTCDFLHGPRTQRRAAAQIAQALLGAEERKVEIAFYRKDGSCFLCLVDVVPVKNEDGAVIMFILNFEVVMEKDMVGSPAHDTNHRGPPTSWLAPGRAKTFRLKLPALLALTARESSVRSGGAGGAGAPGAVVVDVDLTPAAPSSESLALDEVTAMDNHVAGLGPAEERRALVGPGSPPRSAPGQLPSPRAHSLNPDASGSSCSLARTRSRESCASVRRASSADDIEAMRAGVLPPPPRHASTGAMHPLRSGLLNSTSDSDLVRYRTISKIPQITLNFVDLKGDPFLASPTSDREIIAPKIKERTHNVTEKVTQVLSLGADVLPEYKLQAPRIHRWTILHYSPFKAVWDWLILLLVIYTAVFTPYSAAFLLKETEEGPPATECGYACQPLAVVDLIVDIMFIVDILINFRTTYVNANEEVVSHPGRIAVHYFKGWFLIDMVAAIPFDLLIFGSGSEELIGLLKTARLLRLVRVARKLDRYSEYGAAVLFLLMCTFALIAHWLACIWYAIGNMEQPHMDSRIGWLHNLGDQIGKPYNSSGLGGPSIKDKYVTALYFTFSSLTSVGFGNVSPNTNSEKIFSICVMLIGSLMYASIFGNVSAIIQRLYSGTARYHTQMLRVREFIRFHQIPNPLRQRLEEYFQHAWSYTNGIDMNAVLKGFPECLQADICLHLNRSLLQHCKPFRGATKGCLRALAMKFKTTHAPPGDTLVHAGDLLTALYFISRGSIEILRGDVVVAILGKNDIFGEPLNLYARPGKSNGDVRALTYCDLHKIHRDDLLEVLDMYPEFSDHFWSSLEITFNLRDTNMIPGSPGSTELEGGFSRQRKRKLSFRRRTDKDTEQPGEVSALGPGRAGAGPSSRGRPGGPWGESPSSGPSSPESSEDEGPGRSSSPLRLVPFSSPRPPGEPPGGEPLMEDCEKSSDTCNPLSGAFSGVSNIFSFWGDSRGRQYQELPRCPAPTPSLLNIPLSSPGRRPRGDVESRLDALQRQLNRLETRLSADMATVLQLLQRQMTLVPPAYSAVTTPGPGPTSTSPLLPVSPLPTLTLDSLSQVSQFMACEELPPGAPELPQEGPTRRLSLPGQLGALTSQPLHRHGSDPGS

SMILES | hERG current change (%, negative = inhibition) at 10uM [%]
Cc1[nH]c2ccccc2c1C(=O)CN1CCN(C/C=C/c2ccccc2)CC1 | -73.4
COCCNc1nc(-c2cc(C(=O)Nc3ccccc3)on2)cc(C(C)C)n1 | -18.8
COCCn1c(=S)[nH]c2cc(C(=O)N3CCN(c4ccccc4OC)CC3)ccc2c1=O | 10.1
CCOc1ccc2[nH]c(C)c(CN3CCN(C)CC3)c(=O)c2c1 | -12.7
Cc1ccc(NC(=O)c2cc(C)no2)cc1 | 16.9
CC(C)[C@H](NC(=O)Nc1ccc(Oc2ccccc2)cc1)C(=O)O | -5.32
CCOC(=O)N1CCC(=NNc2nc3ccccc3s2)CC1 | -4.59
COc1cc(/C=C(\C#N)c2nnc(N3CCOCC3)n2-c2ccccc2)ccc1O | 1.64
Cc1ccc(C)c(OCC(=O)Nc2ccc(N3CCOCC3)cc2N2CCOCC2)c1 | -49.8
Cc1cc(C)c(C)c(S(=O)(=O)NCc2ccc(C(=O)NCC3CCCO3)cc2)c1C (stereo not shown) | -11
CCOC(=O)CSc1ncccn1 | 8.18
O=C(COc1ccccc1)OCC(=O)c1ccc(S(=O)(=O)N2CCCCC2)cc1 | 17.4
O=S(=O)(Nc1ccc2c(c1)OCCO2)c1cccc2nsnc12 | -11.2
Cc1ccc(S(=O)(=O)N(C)C)cc1NC(=O)COC(=O)c1ccc2c(c1)NC(=O)CS2 | -32.5
CSc1ccccc1C(=O)N1CCC(CCC(=O)NC2CC2)CC1 | 11.6
COc1ccc(C2(c3ccc(OC)cc3)NC(=O)N(CC(=O)NC3(C#N)CCCCC3)C2=O)cc1 | -42.4
O=C(c1ccc(-n2cccc2)cc1)N1CCOCC1 | -3.34
CCOc1ccc(CCNC(=O)CCNS(=O)(=O)c2ccc3c(c2)CCN3C(C)=O)cc1OCC | 0.411
Cc1c(CCC(=O)N2CCC[C@H]2C(=O)O)c(=O)oc2cc3oc4c(c3cc12)CCCC4 | 8.7
COc1ccc(C(C(=O)NCC2CCCO2)N(C(=O)CNC(=O)c2ccco2)c2cc(C)ccc2C)cc1OC (stereo not shown) | 16.5
O=C(Cn1nnc2ccccc2c1=O)N1CCCc2ccccc21 | -13.7
O=C(N=C1SC2CS(=O)(=O)CC2N1c1ccc(OC(F)(F)F)cc1)C1CC1 (stereo not shown) | 7.09

SMILES | hERG current change (%, negative = inhibition) at 10uM [%]
Cc1nc(C)c(-c2ccc(SCC(=O)Nc3ccc(C)c(Cl)c3)nn2)s1 | 21.8
COc1ccc(S(=O)(=O)NCC(c2ccc3c(c2)OCO3)N2CCOCC2)cc1C (stereo not shown) | -15.8
CSCCC(=O)N1CCC(n2nccc2NC(=O)CCc2ccccc2)CC1 | 4.53
Cc1ccc(S(=O)(=O)NCc2ccccc2)cc1C(=O)N(C)Cc1ccccc1F | -45.1
CC(C)(C)OC(=O)CNC(=O)c1nc[nH]c1C(=O)N1CCN(C(=O)OC(C)(C)C)CC1 | -15.8
Cc1cccc(Nc2nc(N3CCN(C)CC3)nc(N)c2[N+](=O)[O-])c1 | -39.3
COc1ccccc1CCNS(=O)(=O)c1c(C)n(C)c(=O)n(C)c1=O | 7.84
CC(/C=N/N1CCN(c2ccccc2)CC1)=C\c1ccccc1 | 0.134
O=C(COC(=O)Cc1c(F)cccc1Cl)NC1CCS(=O)(=O)C1 (stereo not shown) | 20.7
CCc1cc2c(=O)n(C(C)C(=O)OC3CCCCC3)cnc2s1 (stereo not shown) | -23.4
COc1ccc(OC)c(NC(=O)Cc2coc3ccc4ccccc4c23)c1 | 0.772
O=C(O)c1n[nH]c2c1CC(C1CCCCC1)CC2 (stereo not shown) | 13
O=C(Nc1cc(Cl)cc(Cl)c1)C(NCCCO)c1ccccc1 (stereo not shown) | 3.1
CN(CC(=O)NCc1ccco1)S(=O)(=O)c1ccc(F)cc1 | 14.4
COCCOC(=O)c1c(C)n(C)c2ccc(OC(=O)c3c(OC)cccc3OC)cc12 | 24
COc1ccc(C(=O)NC2CC3CCCC(C2)N3Cc2ccccc2)cc1OC (stereo not shown) | -23.6
CC(=O)/C(C#N)=C1\NC(=O)C(Cc2ccc(C)c(Cl)c2)S1 (stereo not shown) | 18.5
CCC(=O)c1ccc(OCC(=O)OCC(=O)N2c3ccccc3NC(=O)C2(C)C)cc1 | 2.82
Cc1ccc(N2C(=O)c3ccc(C(=O)N4CCN(c5ccc(C)c(C)c5)CC4)cc3C2=O)cc1 | 8.32
CCC(=O)NNc1nc2c(C)cccc2s1 | 26
Cc1ccc(C)c(NC(=O)C2CCCN2/C=C/C(=O)C(F)(F)F)c1 (stereo not shown) | 3.29
O=C(O)c1cccc(Sc2ccc(Br)cc2C(=O)O)c1 | 27.7

SMILES | hERG current change (%, negative = inhibition) at 10uM [%]
COc1cccc(C2=NOC(C(=O)N3CCN(Cc4ccccc4)CC3)C2)c1OC (stereo not shown) | -27.3
CCC(=O)Nc1ccc(Cl)c(NC(=S)NC(C)=O)c1 | 11.7
CCOC(=O)C1CCN(C(=O)Cc2ccc(C)cc2)CC1 | -1.62
O=C(O)c1ccc2c(c1)C(=O)N(CCC1=CCCCC1)C2=O | 26.8
C=CCn1c(O)c2ccc(C(=O)N=NC(=O)COc3ccc(OC)cc3)cc2c1O | -12
Cc1cc(=O)oc2c(C)c(OC(C)C(=O)Nc3ccc(N4CCC(C)CC4)cc3)ccc12 (stereo not shown) | 23.3
O=C(CCCn1ncn2c(cc3occc32)c1=O)NCc1ccccc1F | -12.4
O=C(NCC1CCCCC1)c1ccc(F)cc1Cl | -5.71
COC(=O)N1C(=O)[C@](CC(C)C)(c2ccccc2)N1C(=O)OC | 12.5
O=C(NCC1CCCO1)c1c(O)c2c([nH]c1=O)CCCC2 (stereo not shown) | 5.78
O=C(NC(=S)Nc1cccc2c(O)cccc12)c1ccco1 | -0.623
Cc1ccc(NC(=O)N(Cc2ccco2)C(C)c2ccco2)cc1C (stereo not shown) | -17
Cc1onc(-c2c(F)cccc2Cl)c1C(=O)NCc1ccc(S(N)(=O)=O)cc1 | -10
CC(C)(CN=C1NS(=O)(=O)c2ccccc21)CNC(=O)c1ccccc1 | -16.4
CC(NC(=O)c1ccc([N+](=O)[O-])o1)C12CC3CC(CC(C3)C1)C2 (stereo not shown) | -30.2
CC(C)(C)CC(=O)NCCCCCCNC(=O)CC(C)(C)C | 3.04
COc1ccccc1N(C(=O)c1snc(C(N)=O)c1N)C(C(=O)NC1CCCCC1)c1cccc(OC)c1OC (stereo not shown) | -15.7
O=C(O)c1oc2ccccc2c1CN1CCN(c2ccccc2)CC1 | -3.37
O=S(=O)(NCCc1ccc(Cl)cc1)c1cccc2cccnc12 | -48.5
Cc1ccccc1OCc1nc(C#N)c(N2CCCC2)o1 | -36.3
O=C(CC1C(=O)NCCN1Cc1ccccc1C(F)(F)F)NCCn1cccn1 (stereo not shown) | 25.7
C/C(=N\NC(=O)CCCNc1cccc(C)c1)c1ccncc1 | 0.987

SMILES | hERG current change (%, negative = inhibition) at 10uM [%]
O=C(CN1CCOCC1)Nc1nc2ccc(Cl)cc2s1 | -33.8
CCCCOc1ccc(N=Cc2cccs2)cc1 | -7.49
O=C(CSc1nnc(-c2ccccn2)o1)Nc1ccc(F)cc1 | -22.6
CC1CN(CCC(=O)Nc2ccc3c(c2)CCC3)CC(C)O1 (stereo not shown) | 7.82
O=C(CCNC(=O)c1ccc([N+](=O)[O-])cc1)NCCc1ccccc1 | -27.8
CC1CC(C)CN(c2oc(-c3ccccc3F)nc2C#N)C1 (stereo not shown) | 5.9
CCCC1=C(C(=O)OCC)C2(C(=O)Nc3ccccc32)C(C#N)=C(N)O1 (stereo not shown) | 8.72
CN1CCN(c2ccccc2NC(=O)Cc2ccc(Cl)cc2)CC1 | -73.4
Cc1cc2cc(C)c(NCCNC(=O)c3ccccc3)nc2cc1C | 6.9
NC(=O)N/N=C/c1sc(=O)n(-c2ccccc2)c1Cl | 13.8
O=C(Cc1cccs1)Nc1ccc(F)c(S(=O)(=O)N2CCOCC2)c1 | -36.6
Cc1ccc(NCC(=O)N/N=C\C(Br)=C\c2ccccc2)cc1 | -8.87
Cc1cc(F)ccc1NC(=O)C1CSC2(C)CCC(=O)N12 (stereo not shown) | -3.86
COc1n[nH]c(C(=O)Nc2cc(F)ccc2C)c1[N+](=O)[O-] | 18.3
COC(=O)c1ccc(CSc2ccc3nnc(-c4cccc(F)c4)n3n2)o1 | -62
CC(=O)c1ccc(Oc2ccc(C(=O)c3ccc(C)c(C)c3)cc2[N+](=O)[O-])cc1 | 11.1
CCCC1C2CN(C(C)=O)CC=C2C(C#N)=C(N)C1(C#N)C#N (stereo not shown) | -4.14
COc1ccccc1C(=O)Nc1nnc(-c2ccccc2)s1 | 11.9
O=C(c1cnn2c(C(F)(F)F)cc(-c3ccco3)nc12)N1CCCc2ccccc21 | -6.54
Cc1cc(N2CCOCC2)nc(-c2ccccc2O)n1 | 7.69
CC(C)n1nccc1N(Cc1ccc(C#N)cc1)S(=O)(=O)c1ccccc1 | -13.7
C#CCSc1nc2ccccc2n1C(=O)c1ccc(S(=O)(=O)N2CCCCC2)cc1 | -4.22

From paper PMC4336329 (PLoS ONE, 2015)
